The results in this text go back to patent US7893299B2, “Interleukin-1 and tumor necrosis factor-αmodulators; syntheses of such modulators and methods of using such modulators” (Nereus Pharmaceuticals, Inc., priority 2005, dated 2011).

In data set [1] the test system is NF-κB DNA binding activity. The experiment in a line: NF-κB DNA binding activity, EMSA, PC-3. Type of data set: cell-based. As to conditions: TNF-α.
The subject of data set [2] is NF-κB DNA binding activity. The data set is described as follows: NF-κB DNA binding activity, EMSA, RPMI 8226. To be noted: LPS. It counts as cell-based.
In data set [3] the test system is NF-κB p65 subunit nuclear translocation. The data set is described as follows: nuclear translocation of NF-κB p65 / IRAK1 in LPS-stimulated RAW264.7 cells (fluorescence microscopy). As to conditions: 5, 10 and 20 μM. It counts as cell-based. On the procedure:
Cells were pretreated with NPI-1387 (compound 24 under scheme 4 above) at 5, 10 and 20 μM for 1 hr, and then stimulated with 50 ng/ml LPS for 30 min. Coverslips were transferred to clean plates, washed twice in Dulbecco's phosphate buffered saline (DPBS), fixed in 10% formaldehyde for 10 min, and permeabilized with 0.2% Triton X-100 for additional 10 min. Blocking medium (DPBS, 2% BSA, 0.1% Triton X-100) was added for 2 h, and removed by aspiration. Polyclonal goat anti-p65 antibody (Santa Cruz Biotechnology) was added at a 1:1000 dilution for 1 hr. The wells were washed 3 times with DPBS containing 0.1% Triton X-100, and […] of Alexa-488-conjugated anti-goat antibody (1:1000 dilution, Molecular Probes) were added for 30 min. Wells were washed again, and the coverslips were mounted face-down on microscope slides using Vectashield (Vector) mounting medium. Slides were observed under an Olympus fluorescent microscope, images acquired using a Magnafire digital camera, and processed using Adobe Photoshop.

Data set [4] concerns IRAK1. The experiment in a line: phosphorylation of IRAK1 and IκBα upon LPS stimulation in RAW264.7 cells. To be noted: LPS-stimulated RAW264.7; 1, 5, 10 and 20 μM. It counts as cell-based. On the procedure:
Cells were treated with 1, 5, 10 and 20 μM of NPI-1387 for 1 hour and then stimulated with 10 ng/ml LPS for 10 or 30 min. To determine the phosphorylation of IRAK1, whole cell extracts were prepared in RIPA buffer [0.9% NaCl, 50 mM Tris-HCl (pH7.4), 1% Triton X-100, 1 mM EDTA, 0.25% Na-deoxycholic acid, 0.1% SDS, 1 mM Na3VO4, 1 mM NaF and protease inhibitors]. […] Following electro-transfer, the membranes were blocked in Blotto (5%, w/v) non-fat milk in 1×TBST [20 mM Tris, 0.8% (w/v) NaCl, pH 7.6, 0.1% (v/v) Tween 20]. Membranes were then incubated with primary antibodies against IRAK1 (Santa Cruz Biotechnology), total IκBα (Cell Signaling Technology), phospho-IκBα (Cell Signaling Technology) and Tubulin (Lab Vision) in Blotto for 2 hours. The membranes were washed in TBST and (where necessary) incubated with the HRP-conjugated secondary antibody in Blotto for 1 hour before washing extensively with TBST. HRP activity was visualized by utilizing either SuperSignal West Pico or Dura chemiluminescent detection systems (Pierce Biotechnology). […] The protein samples were separated by 10% NuPAGE MES precast gels (Invitrogen) and the extent of GST-IκBα phosphorylation was evaluated by western blotting using the antibody against phospho-IκBα (Cell Signaling Technology).

The test system of data set [5] is RAW264.7 cells. The data set is described as follows: RAW264.7 cell viability / apoptosis, propidium iodide flow cytometry. It counts as cell-based, Murine. As to conditions: 10 μM. Here is the method: To determine whether the test compounds induce apoptosis, flow cytometric measurement of propidium iodide (PI) staining was performed after incubation of the cells with 0.005% PI, following published protocols. Cells were analyzed in a FACScan cytometer equipped with a 25-mW argon laser. The quantification of the percentage of apoptotic cells was calculated using a dot plot of the forward scatter against the PI fluorescence. Cell sorting and analysis of viable and apoptotic populations was performed to confirm the criteria of gating.

For data set [6], the system named is TNF-α synthesis in RAW 264.7 cells. The experiment in a line: SAC-induced TNF-α synthesis in RAW 264.7 cells. Type of data set: cell-based, Murine. On the procedure: (§1) Murine macrophage cells RAW 264.7 (1×10^6/ml) were pretreated for 30-60 minutes with varying doses of the synthetic compound of Formula (I) and a panel of analogs (diluted in 0.5% DMSO) prior to stimulation with various agents such as lipopolysaccharide (LPS) or a gram positive agent like heat-killed Staph aureus (SAC). Supernatants collected over a 72-hour period will be assayed for the levels of TNF-α, IL-1, IL-6, IL-10, IL-12 and other cytokines either by elisa or bioassay. Additional studies to evaluate the effects of the synthetic compound of Formulae (I), (II), (IIA) and (IIB) on cytokine signaling pathways such as, for example, Caspase-activity (Nr-1, Nr.3), transcription factors such as NF-κB, MAP-kinase activity (p38, ERK and JNK) will also be performed.

The test system of data set [7] is IL-6 synthesis in RAW 264.7 cells. The experiment in a line: SAC-induced IL-6 synthesis in RAW 264.7 cells. It counts as cell-based, Murine. To be noted: for IL-6: SAC-induced. Here is the method: as §1
The subject of data set [8] is TNF-α synthesis in RAW 264.7 cells. The experiment in a line: LPS-induced TNF-α synthesis in RAW 264.7 cells. It counts as cell-based, Murine. On the procedure:
as §1

Data set [9] concerns IL-1 synthesis in RAW 264.7 cells. The data set is described as follows: SAC-induced IL-1 synthesis in RAW 264.7 cells. Type of data set: cell-based, Murine. On the procedure:
as §1

As to `C=CC(=O)C1(C)CCCC2(C)C3=CCC(C)(C=C)C[C@@H]3CC[C@H]12` (stereo in doubt) [NPI-1387, 1-[(1S,4aS,7R)-1,4a,7-Trimethyl-7-vinyl-1,2,3,4,4a,6,7,8,8a,9,10,10a-dodecahydro-1-phenanthrenyl]-2-propen-1-one], the “NF-κB DNA binding activity” value in [1] and in [2] was “inhibited TNF-α or LPS-induced NF-κB DNA binding activity in both cell lines” throughout. Moreover, the “nuclear translocation of NF-κB (p65) / activated IRAK1” value in data set [3] is “inhibited the nuclear translocation of activated IRAK1 and NF-κB”. Also, in data set [4], the “phosphorylation of IRAK1 (and its downstream target IκBα)” value was “inhibited the phosphorylation of endogenous IRAK1 and its downstream target IκBα in a dose-dependent manner”.
Regarding `C=C[C@@]1(C)CCC=C2[C@H]1CC[C@@H]1[C@](C)(C(=O)OC)CCC[C@@]21C` [TTL3], the RAW264.7 cell viability result in [5] is reported as “did not affect”. The TNF-α in data set [6] (compound at 0.001 μg/ml) came to 80 ng/mL; in [6] (compound at 0.01 μg/ml), 75 ng/mL; in data set [6] (compound at 0.1 μg/ml), 85 ng/mL; in data set [6] (compound at 1 μg/ml) it was 60 ng/mL; in data set [6] (compound at 10 μg/ml) it was 80 ng/mL; in [8] (LPS (1 μg/ml) + TTL3 1.0 μg/ml), 13 ng/mL. In addition, the TNF-α turned out to be 15 ng/mL in data set [8] (LPS (1 μg/ml) + TTL3 1 × 10^−4 μg/ml), 10 ng/mL in data set [8] (LPS (1 μg/ml) + TTL3 1 × 10^−5 μg/ml), 18 ng/mL in data set [8] (LPS (1 μg/ml) + TTL3 1 × 10^−6 μg/ml) and 41 ng/mL in data set [8] (LPS (1 μg/ml) + TTL3 1 × 10^−7 μg/ml). For the same molecule, in data set [7], the “IL-6 synthesis (in words)” value is reported as “neither analog TTL1 nor TTL3 significantly inhibited IL-6 synthesis”. In addition, the “greater activity than TTL1” value in [8] (TNF-α and IL-1 synthesis) is reported as “approximately 100 times”. The IL-1α in [9] (compound at 0.001 μg/ml) is 200 pg/mL; in [9] (compound at 0.01 μg/ml) it was 220 pg/mL; in data set [9] (compound at 0.1 μg/ml), 190 pg/mL; in data set [9] (compound at 1 μg/ml), 180 pg/mL; in data set [9] (compound at 10 μg/ml), 170 pg/mL.
With `C=C[C@@]1(C)CCC=C2[C@H]1CC[C@@H]1[C@](C)(C(=O)O)CCC[C@@]21C` [TTL1], the RAW264.7 cell viability entry in [5] is “did not affect”. Besides, the TNF-α in data set [6] (compound at 0.1 μg/ml) is 250 ng/mL; in data set [6] (compound at 1 μg/ml), 285 ng/mL; in data set [6] (compound at 5.4 μg/ml) it was 150 ng/mL; in data set [8] (LPS-induced, compound at 0.1 μg/ml), 57 ng/mL; in [8] (LPS-induced, compound at 1 μg/ml), 60 ng/mL; in [8] (LPS-induced, compound at 5.4 μg/ml), 38 ng/mL. The “IL-6 synthesis (in words)” value in [7] was “neither analog TTL1 nor TTL3 significantly inhibited IL-6 synthesis”. Besides, the IL-6 turned out to be 83 ng/mL in data set [7] (compound at 0.1 μg/ml), 86 ng/mL in data set [7] (compound at 1 μg/ml) and 65 ng/mL in [7] (compound at 5.4 μg/ml). In addition, the IL-1α in data set [9] (compound at 0.1 μg/ml) worked out at 950 pg/mL; in [9] (compound at 1 μg/ml), 400 pg/mL; in [9] (compound at 5.4 μg/ml), 300 pg/mL.
